Test results: the supplement of paper PMC5499739
The full ranking holds about 16,000 sequences; the median of “Z-score” is about -0.37, and the highest 2% start at about 3.2. Some of the results follow.

What follows are sequences tested on RBM10 RRM1-ZnF (GST-tagged construct) (assay: RNAcompete 7-mer binding Z-score; higher = stronger binding preference).
How it was run: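 Bound RNA was identified by microarray hybridisation after GST-tagged RBM10 constructs (20 pmol) had been mixed with 1.5 nmol of a designed pool of 241 399 RNAs up to 41 nt, transcribed from microarray-derived DNA templates. Binding ran for 30 min at 4°C in 1 ml Hepes pH 7.8 buffer with KCl, NaCl, glycerol, DTT, BSA and glutathione Sepharose beads, with four 2-min washes at 4°C afterwards. For every heptamer motif, a one-sided Z-score for enrichment was computed across the probes that contained it.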

| Sequence | RNAcompete 7-mer binding Z-score |
| --- | --- |
| CACACCG | -0.327 |
| UCGACUU | -0.763 |
| UUAUGCA | -0.529 |
| CUUAACU | -0.782 |
| AGUGCUC | -0.392 |
| UGGUUAA | 1.58 |
| AGAGAAU | 0.277 |
| CAGACAU | -0.418 |
| AAGGUUC | 0.745 |
| GUAAAUA | 0.069 |
| CUGUGCG | -0.0869 |
| CGCCCCA | -0.587 |
| AUCACUG | -0.539 |
| UGUUUGG | 0.917 |
| ACUGAAG | 0.183 |
| CGACUUG | -0.704 |
| ACAAUCA | -0.587 |
| GAGGGAG | 3.2 |
| CCGGAGC | 0.0625 |
| AGUUAGG | 2.17 |
| UGACAGG | 2.13 |
| AAUUAUC | -0.717 |
| AUACCGA | -0.678 |

| Sequence | RNAcompete 7-mer binding Z-score |
| --- | --- |
| CUAGGUA | 0.599 |
| UGCAGUU | -0.272 |
| AAGACCG | -0.318 |
| UGUCAGA | -0.457 |
| ACCCGCA | -0.626 |
| AUGCCGA | -0.665 |
| CUGCCAG | -0.613 |
| CGGUCGG | 0.485 |
| GCAACGG | 1.29 |
| AACGGGA | 3.45 |
| AAACGCU | -0.629 |
| CUAAAAA | -0.425 |
| CGACUGC | -0.665 |
| UAUUGAG | 0.0138 |
| CCGCAUC | -0.776 |
| GAUUAGG | 2.54 |
| AAUCAAU | -0.451 |
| CGUGUGC | -0.23 |
| UGGUGAU | 1.2 |
| AAUACCG | -0.763 |
| CCAUGGA | 0.131 |
| CUGAAUU | -0.655 |
| CCUGACG | -0.496 |

| Sequence | RNAcompete 7-mer binding Z-score |
| --- | --- |
| GUCAGUG | 0.67 |
| UGUAAUG | 0.0853 |
| GCUCGUC | -0.558 |
| AUUUUCU | -0.727 |
| UGACAGC | -0.282 |
| UUCCUUG | -0.675 |
| AAGAGAG | 1.48 |
| CGUGUGU | -0.0155 |
| CACACUU | -0.802 |
| GUUGGAG | 2.4 |
| CCGCUUC | -0.808 |
| CGACCCG | -0.496 |
| GGCUUGC | -0.324 |
| CACGUCA | -0.259 |
| GGAGCUU | 0.553 |
| ACUGGCG | 0.017 |
| UACACGA | -0.376 |
| UACAAUA | -0.353 |
| GCUAGUA | -0.249 |
| AAUGGCG | 1.11 |
| GUAUAAU | 0.0333 |
| CCAGGUG | 0.829 |
| CAUAUAG | -0.162 |

| Sequence | RNAcompete 7-mer binding Z-score |
| --- | --- |
| AACGGCU | -0.0902 |
| AGUAUAA | -0.181 |
| CGAGGGG | 2.86 |
| AAGUGGG | 3.73 |
| ACAUAGU | -0.292 |
| AGUGCAC | 0.056 |
| UAGGCCG | -0.0707 |
| GGUGAAA | 1.97 |
| ACUGACG | -0.126 |
| GAGUCCC | -0.314 |
| ACACGGA | 0.511 |
| GUAGGGG | 4.54 |
| CUAAACC | -0.756 |
| AGGCGAU | 0.371 |
| AAACAAC | -0.353 |
| CCCUCGA | -0.75 |
| UACUCUA | -0.558 |
| UGUAUCU | -0.467 |
| UGAACUG | -0.106 |
| UGAAAAG | 0.381 |
| AGGCUGG | 0.881 |
| CAUACAC | -0.581 |
| CACCCUG | -0.496 |

| Sequence | RNAcompete 7-mer binding Z-score |
| --- | --- |
| AGCCUAU | -0.85 |
| UGUAUGG | 1.39 |
| ACCAUUC | -0.912 |
| UAGCAUC | -0.655 |
| UCUUUGC | -0.932 |
| GUCUAGA | -0.233 |
| AGCGGAU | 3.22 |
| CGUCACC | -0.366 |
| GUUGCAG | 0.355 |
| UAAGUGA | 0.4 |
| GAAUUAA | -0.035 |
| CGAUACU | -0.756 |
| CGUCCGC | -0.646 |
| UGGUCCA | -0.292 |
| GGCUGGC | 0.472 |
| UUUAUUC | -0.85 |
| GCGGUUC | -0.353 |
| CUCUGGA | -0.503 |
| UCAACGC | -0.763 |
| GGUCCGG | 0.543 |
| GACCAGG | 0.803 |
| GUACAGU | 0.128 |
| UUUUCUC | -0.707 |

| Sequence | RNAcompete 7-mer binding Z-score |
| --- | --- |
| UGCGUCU | -0.659 |
| AAUGUGU | 0.615 |
| GGAGGCG | 2.45 |
| ACAAAGU | -0.123 |
| AAUAGUC | -0.379 |
| GAAGCUG | 0.283 |
| CCGGUGA | -0.00896 |
| AAAAUAC | -0.587 |
| ACGCAAG | 0.0398 |
| AUGGCUU | -0.0512 |
| AUAGCUG | -0.0252 |
| CGACCAU | -0.902 |
| ACCAUGC | -0.792 |
| CCUUUUU | -0.987 |
| ACCACCG | -0.249 |
| UACGAGU | -0.155 |
| UGCUUGA | -0.737 |
| ACUGAAC | -0.48 |
| GCGUUCA | -0.34 |
| CCUUUCA | -0.893 |
| UCCAAGC | -0.698 |
| UCACCGC | -0.711 |
| GUUGGUA | 1.64 |

| Sequence | RNAcompete 7-mer binding Z-score |
| --- | --- |
| GGCCACU | -0.561 |
| UAGUUCC | -0.753 |
| UCUGUGG | 0.329 |
| AAGUACC | -0.493 |
| UCCCAGG | 0.157 |
| CAAUCGG | -0.0187 |
| GCGUUCG | -0.285 |
| GCCUAAA | -0.48 |
| ACUUGCC | -0.954 |
| GAGCAUU | -0.353 |
| AGAACGG | 1.53 |
| UGGGAGA | 2.78 |
| CGUAACU | -0.633 |
| ACGGACA | 0.846 |
| AUAACUG | -0.324 |
| CGCGCAU | -0.617 |
| CACGGUU | 0.0625 |
| AGUGAAU | 0.452 |
| GGUCAAC | 0.238 |
| GUUAAAG | 0.511 |
| AGUUCUC | -0.746 |
| UACCAUG | -0.597 |
| GGAUGAA | 2.16 |

| Sequence | RNAcompete 7-mer binding Z-score |
| --- | --- |
| AUGGCUG | 0.657 |
| CGUUAGC | -0.561 |
| AAACGGA | 1.5 |
| CGUAGCU | -0.578 |
| UCAUAUU | -0.714 |
| CAUGGCU | -0.21 |
| GGGUAAC | 2.4 |
| CCAAGAG | -0.301 |
| GGGCACC | 0.904 |
| ACUCGUG | -0.522 |
| UGGUUAC | 0.914 |
| GCAUGCC | -0.464 |
| AGCUUAA | -0.574 |
| UUGCGAC | -0.516 |
| CCCUAUA | -0.769 |
| CUACCAC | -0.62 |
| CCAGCUC | -0.85 |
| CGGAGAU | 1.01 |
| UUGAGUA | 0.0138 |
| UGCAGAA | 0.105 |
| CACGUAC | -0.438 |
| GCUGUGG | 1.12 |
| AGUGUAC | 0.14 |
